Data published in publication PMC4336329 (PLoS ONE, 2015).
Out of some 310,000 compounds screened, about 14,000 (4.5%) showed an effect of 50% or more. Effects have a minus sign here. This is one part of the list.

biological target: human ether-à-go-go-related gene (hERG) potassium channel (human, UniProt Q12809); experiment: primary screen, population patch clamp on CHO cells stably expressing hERG
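Note: peak tail current of the secondary pulse compared with the same well before compound.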

Chain of human ether-à-go-go-related gene (hERG) potassium channel (Q12809 whole entry, looked up): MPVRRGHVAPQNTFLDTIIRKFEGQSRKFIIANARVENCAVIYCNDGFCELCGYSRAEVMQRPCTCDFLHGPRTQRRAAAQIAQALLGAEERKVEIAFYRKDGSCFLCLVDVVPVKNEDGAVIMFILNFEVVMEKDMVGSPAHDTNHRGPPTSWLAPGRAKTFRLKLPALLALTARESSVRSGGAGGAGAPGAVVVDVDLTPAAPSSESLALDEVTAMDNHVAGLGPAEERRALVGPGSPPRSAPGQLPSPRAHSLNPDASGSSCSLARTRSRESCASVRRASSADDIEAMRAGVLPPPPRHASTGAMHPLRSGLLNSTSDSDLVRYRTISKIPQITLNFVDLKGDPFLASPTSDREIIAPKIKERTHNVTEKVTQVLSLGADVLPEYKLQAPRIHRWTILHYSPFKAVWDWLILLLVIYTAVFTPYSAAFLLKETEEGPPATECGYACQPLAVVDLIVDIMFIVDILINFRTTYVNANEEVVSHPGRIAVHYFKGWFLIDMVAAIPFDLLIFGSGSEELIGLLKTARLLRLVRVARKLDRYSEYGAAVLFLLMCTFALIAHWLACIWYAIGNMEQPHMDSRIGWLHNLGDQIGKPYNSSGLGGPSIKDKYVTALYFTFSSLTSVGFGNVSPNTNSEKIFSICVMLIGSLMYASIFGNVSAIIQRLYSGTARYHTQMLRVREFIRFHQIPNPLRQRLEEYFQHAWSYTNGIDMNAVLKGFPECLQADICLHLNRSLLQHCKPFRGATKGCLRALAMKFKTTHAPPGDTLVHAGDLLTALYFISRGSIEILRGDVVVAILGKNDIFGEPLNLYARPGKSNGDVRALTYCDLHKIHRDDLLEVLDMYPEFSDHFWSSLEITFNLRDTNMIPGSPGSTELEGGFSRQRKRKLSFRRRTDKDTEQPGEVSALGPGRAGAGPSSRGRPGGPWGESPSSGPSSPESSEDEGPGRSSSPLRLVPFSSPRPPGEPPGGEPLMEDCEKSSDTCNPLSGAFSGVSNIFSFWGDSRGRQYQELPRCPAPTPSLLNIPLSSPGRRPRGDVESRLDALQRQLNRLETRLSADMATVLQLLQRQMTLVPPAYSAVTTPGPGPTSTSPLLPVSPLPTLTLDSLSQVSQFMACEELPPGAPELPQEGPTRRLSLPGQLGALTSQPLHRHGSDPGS

| SMILES | hERG current change (%, negative = inhibition) at 10uM [%] |
| --- | --- |
| Cc1ccc(C)c(SCC(=O)NC(=O)Nc2ccc3c(c2)OCCO3)c1 | -1.6 |
| CC1C(=O)Nc2ccc(S(=O)(=O)N3CCCCCC3)cc21 (stereo not drawn) | -1.68 |
| Cc1cccc(CSc2nc3ccccc3c(=O)n2C)c1 | 3.75 |
| CCN(CC)S(=O)(=O)c1ccc(NC(=O)CN(c2cccc(F)c2)S(C)(=O)=O)cc1 | -3.73 |
| Cc1cc(Cl)ccc1OC(C)C(=O)Nc1ccc(C(=O)Nc2ccccc2C(=O)O)cc1 (stereo not drawn) | 16 |
| O=C(O)c1ccc2c3c(ncnc13)-c1ccccc1C2=O | -8.87 |
| CCCc1ccc(C(=O)NNc2ccccc2F)cc1 | 2.3 |
| Cc1cc(=O)oc2c(C)c(OC(=O)c3ccco3)ccc12 | -8.69 |
| COc1ccc(C(=O)Oc2ccc(Br)cc2C(=S)N2CCOCC2)cc1 | -0.284 |
| COc1ccc(NC(=O)c2ccco2)c(NC(=O)Cc2cccs2)c1 | 3.62 |
| O=C(N/N=C/c1ccc(N2CCOCC2)cc1)C1COc2ccccc2O1 (stereo not drawn) | -15.5 |
| COc1ccccc1N(C)S(=O)(=O)c1ccc(C(=O)O)cc1 | 16 |
| Cc1cc(-c2ccc(C)c(S(=O)(=O)NCC3CCN(Cc4cccc(F)c4)CC3)c2)on1 | -39.1 |
| COc1ccccc1CNC(=O)COC(=O)c1cccc(S(=O)(=O)N2CCOCC2)c1 | -35.5 |
| COC(=O)COc1ccc(S(=O)(=O)N2CCN(c3ccccc3)CC2)cc1 | 25.3 |
| O=C(O)c1ccccc1Sc1ccccc1S(=O)(=O)NC1CCCCC1 | 20.4 |
| COc1ccc(C(=O)C2CCCCC2=O)cc1 (stereo not drawn) | 9.71 |
| CC1(C)Cc2cccc(Oc3ccc(S(=O)(=O)N4CCCCC4)cn3)c2O1 | -33.1 |
| CCN(CC)c1ccc(NC(=O)c2cccc(C)c2)cc1S(=O)(=O)Nc1ccccc1OC | 10.7 |
| CC(C)[C@H](NS(=O)(=O)c1ccc2c(c1)OCCO2)C(=O)OCC(=O)Nc1cccc(Cl)c1Cl | -9.56 |
| CCN(CC)S(=O)(=O)c1ccc(N2CC(C(=O)NCc3ccc4c(c3)OCO4)CC2=O)cc1 (stereo not drawn) | -7.88 |
| O=C(O)C(Oc1ccc2c3c(c(=O)oc2c1)CCC3)c1ccccc1 (stereo not drawn) | -12.7 |
| Cc1cc(C(=O)NNC(=O)c2c(-c3c(Cl)cccc3Cl)noc2C)no1 | 15.5 |
| Cc1ccccc1CN1CCN(c2ccc(S(=O)(=O)N3CCCC3)cn2)CC1 | -8.46 |
